In publication PMC10667928:

Tests used:
[1] = target: CD28, a dimeric cell-surface receptor (reference dimer) (UniProt P10747); experiment: FRET or BRET; FRET-FLIM data of the fixed cells sorted by stoichiometry (<0.3, 0.3-0.5, 0.5-0.7, >0.7); dimerization grade by equation (8): β1AR as monomer baseline, CD28 at stoichiometry <0.3 as 100%
[2] = target: CD28, a dimeric cell-surface receptor (reference dimer) (UniProt P10747); experiment: FRET or BRET; FRET-FLIM (pulsed interleaved excitation) on fixed HEK293T cells, basal or apical membrane; first-named protomer with C-terminal eGFP (donor, written as binder), second with C-terminal mCherry (acceptor, written as target); donor/acceptor ratio 1:1 at transfection; lifetime-based FRET efficiency Eτ against donor-only samples
[3] = target: CD28, a dimeric cell-surface receptor (reference dimer) (UniProt P10747); experiment: FRET or BRET; FRET-FLIM (pulsed interleaved excitation) on fixed HEK293T cells, basal or apical membrane; first-named protomer with C-terminal eGFP (donor, written as binder), second with C-terminal mCherry (acceptor, written as target); donor/acceptor ratio 1:5 at transfection; lifetime-based FRET efficiency Eτ against donor-only samples

FRET efficiency Eτ at stoichiometry <0.3 (taken as 100% dimerization) [1]: 34.1%
FRET efficiency Eτ [2]: 19.5%
FRET efficiency Eτ [3]: 32.6%
Substance: CD28, a dimeric cell-surface receptor (reference dimer) (a stretch of the chain, sequence left out) (receptor; other documents disagree on this pair)
